Experimental data: PubChem BioAssay AID624418 (National Center for Advancing Translational Sciences (NCATS), 2012)
Hit rate of the full screen: of about 410,000 compounds, about 530 (0.13%) were called active. Inconclusive results, whose numbers are uncertain, are shown with a selection of clear calls. The call rests on the fitted dose curve; in most records, active means well fitted inhibition curve with a large enough effect; inconclusive means small, poorly fitted or top-dose-only effect, or another doubt; inactive means no such curve, though single readings can be large or run the other way. Where the call is inconclusive, the potency comes from a doubtful curve fit.

assay: qHTS of GLP-1 Receptor Inverse Agonists: Cytotox Screen; conditions: HEK293 cAMP-luciferase reporter cells, luminescence, 24 h; activity change, negative = inhibition: at 38.3 µM (top of the series) unless noted
In short: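 Seeding density was 200 cells/uL; after overnight-length (12 h) culture, 23 nL compounds went on for 24 h at 37 °C. Readout used a luciferase detection reagent, luminescence taken after 12 min at room temperature.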
On the % scale 0 is the no-effect control and ±100 the full control effect; potency means the concentration at half of the fitted maximal effect.

| Compound | Potency | activity change, negative = inhibition |
| --- | --- | --- |
| CCOc1cccc(/C=N/Nc2ccc(S(=O)(=O)N(CC)CC)cn2)c1O | inconclusive: 0.794 µM [inhibitor, full curve, poor fit] |  |
| Cc1ccc(OCc2cc(C(=O)NCCc3cccnc3)no2)cc1C | inactive |  |
| CCN(CC(=O)Nc1ccc(OC)cc1)CC(=O)Nc1sc2c(c1C(=O)OC)CCCC2 | inconclusive: 2.51 µM [inhibitor, full curve, poor fit] |  |
| O=C(CSc1ccc(Br)cc1)NCC1(N2CCCCC2)CCCCC1 | inconclusive: 12.6 µM [inhibitor, single point] |  |
| Cc1cccc(NNC(=O)C2CCC2)c1 | inconclusive: 2.51 µM [inhibitor, full curve, poor fit] |  |
| O=C(COC(=O)c1ccc(NS(=O)(=O)c2cccs2)cc1O)NCc1ccccc1 | inconclusive: 0.447 µM [inhibitor, partial curve, poor fit] |  |
| CCCOc1ccc(C(=O)C(CCC(CNCC)C(=O)c2ccc(OCCC)cc2)CNCC)cc1 (stereo unspecified) | inconclusive: 3.98 µM [inhibitor, full curve] |  |
| COc1cccc2c3cccc(OC)c3c3[nH]cnc3c12 | inconclusive: 22.4 µM [inhibitor, single point] |  |
| Cc1cc2cc3c(cc2nc1SCc1ccccn1)OCCO3 | inactive |  |
| C/C=C\C(=O)Nc1cccc(C2=NOC3(C2)C[C@H](C(N)=O)N(C(=O)Cc2ccc([N+](=O)[O-])cc2)C3)c1 (stereo partly specified) | inconclusive: 0.501 µM [inhibitor, full curve, poor fit] |  |
| CC(C)c1ccc(C(=O)N2CCCC(c3cc(C(=O)Nc4ccccc4Cl)no3)C2)cc1 (stereo unspecified) | inactive |  |
| O=C(CN1CCN(Cc2ccccc2)CC1)N1CCCc2c1c(=O)oc1ccc(O)cc21 | inconclusive: 20 µM [inhibitor, single point] |  |
| CCOP(=O)(OCC)c1nc(-c2ccc(Br)cc2)oc1N1CCCCC1 | inactive |  |
| COCCNC(=S)N/N=C(\C)c1cccc([N+](=O)[O-])c1 | inconclusive: 28.2 µM [inhibitor, single point] |  |
| NC1=CC(=O)C(=O)c2cccnc21 | inconclusive: 28.2 µM [inhibitor, single point] |  |
| COc1ccc(NC(=O)C2Cc3c(-c4ccc(NC(C)=O)cc4)ccnc3O2)cn1 (stereo unspecified) | inconclusive: 25.1 µM [inhibitor, partial curve, poor fit] |  |
| Cc1ccc(-n2c(-c3ccccc3)n[nH]c2=S)cc1 | inconclusive: 31.6 µM [inhibitor, partial curve, poor fit] |  |
| Cc1c(Cl)cccc1Nc1ccccc1C(=O)O | inactive |  |
| C=CCOC(=O)C1=C[C@H](c2ccc(C(F)(F)F)cc2)[C@@H](CCCO)[C@H](OCC)O1 | inactive |  |
| CC(C)C[C@H](NC(=O)c1nc[nH]c1C(=O)N1CCc2ccccc2C1)C(=O)OCc1ccccc1 | inactive |  |
| CCCCN(C)CCCNC(=O)c1cn(CC)c2ccc(S(=O)(=O)N3CCc4ccccc4C3)cc2c1=O | inconclusive: 8.91 µM [inhibitor, partial curve, poor fit] |  |
| Cc1ccc2nc(C(O)C(O)c3nc4ccc(C)cc4[nH]3)[nH]c2c1 (stereo unspecified) | inactive |  |

| Compound | Potency | activity change, negative = inhibition |
| --- | --- | --- |
| Cn1cccc1C(=O)OCC(=O)Nc1ccc2c(c1)OCCO2 | inactive |  |
| S=C(NCc1ccc(Cl)cc1)Nc1ccccc1 | inconclusive: 28.2 µM [inhibitor, single point] |  |
| COc1ccc(NC(=O)CCN2CCN(C/C=C/c3ccccc3)CC2)cc1 | inactive |  |
| O=C(/C=C/c1ccc(Cl)cc1)c1cccnc1 | inconclusive: 22.4 µM [inhibitor, single point] |  |
| CC(C)N(c1ccccc1)c1ccc(NC(=S)NCCN(C)C)cc1 | inconclusive: 28.2 µM [inhibitor, single point] |  |
| CCCC[n+]1ccc(-c2nc3ccc([N+](=O)[O-])cc3[nH]2)cc1 | inconclusive: 10 µM [inhibitor, single point] |  |
| Cc1ccc(C(=O)Nc2nc3ccccc3n2CCN2CCCC2)cc1 | inconclusive: 28.2 µM [inhibitor, single point] |  |
| CC1Oc2cc3oc4c(O)c5c(cc4c(=O)c3c(O)c2C1(C)C)C=CC(C)(C)O5 (stereo unspecified) | inactive |  |
| O=[N+]([O-])c1ccc(NC(=S)NCCc2ccccc2)cc1 | inconclusive: 12.6 µM [inhibitor, single point] |  |
| Nc1ccc(Nc2ccccc2N)cc1 | inconclusive: 28.2 µM [inhibitor, single point] |  |
| Cc1ccc(C(=O)NCCNC(=O)c2ccc(F)cc2)cn1 | inconclusive: 2 µM [inhibitor, partial curve, poor fit] |  |
| O=C(CSc1nc2ccccc2n1CCc1ccccc1)NC1CC1 | inconclusive: 5.62 µM [inhibitor, full curve, poor fit] |  |
| Cc1cccc(CN2CCc3c([nH]c4ccccc34)C2CC(C)C)n1 (stereo unspecified) | inactive |  |
| COc1ccc(O)c(C(=O)c2cnc3c(c2)CN(C)C(=O)N3)c1 | inconclusive: 2 µM [inhibitor, full curve] |  |
| O=C(O)c1ccccc1-c1c2cc(I)c(=O)c(I)c-2oc2c(I)c(O)c(I)cc12 | inconclusive: 6.31 µM [inhibitor, partial curve] |  |
| Cc1ccc(NC(=S)Nc2ccc(F)cc2)cc1C | inconclusive: 12.6 µM [inhibitor, single point] |  |
| COc1ccc(N2CCN(CC(O)COc3c(OC)cccc3OC)CC2)cc1 (stereo unspecified) | inconclusive: 31.6 µM [inhibitor, single point] |  |
| Cc1cc(NC(=O)c2ccc(N3CCCC3)c([N+](=O)[O-])c2)no1 | inconclusive: 12.6 µM [inhibitor, single point] |  |
| O=C(Nc1nc2ccccc2n1CCN1CCCC1)C1CCCCC1 | inconclusive: 28.2 µM [inhibitor, single point] |  |
| Nc1nc(N)nc(-c2cc(F)ccc2O)n1 | inconclusive: 28.2 µM [inhibitor, single point] |  |
| CC1(C)CC(=O)C2=C(C1)OC1=C(C(=O)CC(C)(C)C1)C2c1ccc(O)c([N+](=O)[O-])c1 | inactive |  |
| O=C(CC1Sc2ccccc2NC1=O)Nc1cccc(C(F)(F)F)c1 (stereo unspecified) | inactive |  |

| Compound | Potency | activity change, negative = inhibition |
| --- | --- | --- |
| Cc1cccc(-c2cccc(NC(=O)C3CCCN(C(=O)c4csc(C)n4)C3)c2)c1 (stereo unspecified) | inactive |  |
| O=C(c1ccco1)N1N=C(c2cccs2)CC1c1ccccc1O (stereo unspecified) | inconclusive: 10 µM [inhibitor, single point] |  |
| C[C@H](CO)N1C[C@H](C)[C@@H](CN(C)Cc2ccc(-c3ccccc3)cc2)Oc2ncc(C#C[C@@H](C)O)cc2C1=O | inconclusive: 12.6 µM [inhibitor, single point] |  |
| Cc1nc(SCC(=O)N2CCCC2=O)c2c(C)c(C)sc2n1 | inactive |  |
| CCn1c(CNc2ccc(F)cc2)nnc1SCC(=O)OC1CCCCC1 | inconclusive: 6.31 µM [inhibitor, full curve, poor fit] |  |
| COc1ccc(C(=O)N(C)CCCC2CCCC2)cc1OC1CCN(C(C)C)CC1 | inconclusive: 14.1 µM [inhibitor, single point] |  |
| O=C(C1=C(O)C(=O)N(CCN2CCOCC2)C1c1cccc([N+](=O)[O-])c1)c1cc2ccccc2o1 (stereo unspecified) | inconclusive: 8.91 µM [inhibitor, partial curve, poor fit] |  |
| O=C1/C(=C\c2ccco2)NC(=S)N1c1ccccc1 | inconclusive: 11.2 µM [inhibitor, partial curve] |  |
| Cc1cc2nc(-c3ccc(SCC(=O)Nc4ccc(S(=O)(=O)N5CCCC5)cc4)nc3)[nH]c2cc1C | inconclusive: 22.4 µM [inhibitor, single point] |  |
| O=C(NNC(=O)c1ccccc1OCc1ccccc1Cl)c1csc(N2CCOCC2)n1 | inconclusive: 3.16 µM [inhibitor, full curve, poor fit] |  |
| O=C(NC(=S)Nc1ccccc1[N+](=O)[O-])c1ccccc1Cl | inconclusive: 28.2 µM [inhibitor, single point] |  |
| CCOC(=O)c1nn(-c2ccccc2)c(C(=O)OCC)c1N | inconclusive: 0.501 µM [inhibitor, full curve, poor fit] |  |
| COc1c(Cl)cc(C(=O)NN)cc1Cl | inconclusive: 3.16 µM [inhibitor, full curve, poor fit] |  |
| COc1cccc(/C=C/C(=O)Oc2ccc(C(=O)c3ccc(F)cc3)cc2)c1 |  | inactive: -2.01% [at 1.53 µM] |
| CC(=O)n1cc(N(C(=O)CCl)c2ccc(C)cc2)c2ccccc21 | inconclusive: 7.94 µM [inhibitor, partial curve, poor fit] |  |
| C=CCN(C(=O)CSC1=NC(=O)CN1C(C)=O)c1nc(C)c(-c2ccccc2)s1 | inconclusive: 28.2 µM [inhibitor, single point] |  |
| COc1ccccc1Nc1c2c(nc3ccc(NC(=O)c4ccc(N(C)C)cc4)cc13)CCCC2 | inconclusive: 11.2 µM [inhibitor, partial curve, poor fit] |  |
| Cc1ccc(-n2c(=O)c3oc4ccccc4c3n(Cc3cccc(F)c3)c2=O)cc1C | inactive |  |
| COc1cc(Nc2nc(-c3ccc(OC)c(OC)c3)nc3ccccc23)cc(OC)c1 | inconclusive: 14.1 µM [inhibitor, partial curve, poor fit] |  |
| Cc1ccc(C)c(NS(=O)(=O)c2cc(C(=O)Nc3cccc(N(C)S(C)(=O)=O)c3)ccc2C)c1 | inconclusive: 3.55 µM [inhibitor, partial curve] |  |
| Nc1cc(C(=O)OCC(=O)NC(c2ccccc2)c2ccccc2)ccc1Cl | inactive |  |
| CN(CCCC(=O)O)c1ccc(N=Nc2ccc([N+](=O)[O-])cc2)cc1 | inconclusive: 10 µM [inhibitor, partial curve, poor fit] |  |
